# Test results reported in PubChem BioAssay (NCATS).
# Where “and” joins values, the source holds several entries; their conditions need not be identical. Equal values may be shown once. The shares of active, inactive and inconclusive entries below differ from those in the screen. For some of these results: Potencies beside an inconclusive call are fits to weak or partial responses and may not hold up. The source holds several records for some structures; these can differ, active in one and inactive in another. Calls of active or inactive are those of the source. Calls come from the whole dose curve; as a rule, active = well fitted curve in the direction sought with a large enough effect; inconclusive = small, poorly fitted or top-dose-only effect, or another doubt; inactive = no such curve, though single readings can be large; an effect the other way counts as inactive or inconclusive.
# Experiments:
# [1] = P-glycoprotein substrates identified in KB-8-5-11 adenocarcinoma cell line, qHTS therapeutic library screen (AID 1346987); note: potency is the fitted concentration of half-maximal effect; nearly all actives have a fitted effect of over 65% in size
# How it was run: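 Compounds are pinned in dose-response onto KB-8-5-11 cells (500 cells/well, colchicine-free medium) and left 72 h at 37 degree C. CellTiter-Glo luminescence then yields AC50 values.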
# [2] = qHTS of pediatric cancer cell lines to identify multiple opportunities for drug repurposing: Primary screen for TC32 cells (AID 1347089); note: potency is the fitted concentration of half-maximal effect; nearly all actives have a fitted effect of over 60% in size
# How it was run: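 In the primary qHTS, MIPE compounds were tested at 11 concentrations (0.78 nM to 46 µM) and NPC compounds at 8 (0.59 nM to 46 µM) on TC32 cells for 48 h. CellTiter-Glo luminescence gave viability.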
# [3] = qHTS of pediatric cancer cell lines to identify multiple opportunities for drug repurposing: Primary screen for DAOY cells (AID 1347090); conditions: DAOY medulloblastoma viability, CellTiter-Glo luminescence, 48 h; activity change, negative = cytotoxic: at 46 µM (top of the series); note: potency is the fitted concentration of half-maximal effect; nearly all actives have a fitted effect of over 55% in size
# How it was run: (§1)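 Eight- or eleven-point concentration series, 48 h treatment at 37 degrees C in growth media; readout CellTiter-Glo luminescence. Potency and efficacy were taken from the concentration-response curves.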
# [4] = qHTS of pediatric cancer cell lines to identify multiple opportunities for drug repurposing: Primary screen for SJ-GBM2 cells (AID 1347091); note: potency is the fitted concentration of half-maximal effect
# How it was run: as §1
# [5] = qHTS of pediatric cancer cell lines to identify multiple opportunities for drug repurposing: Primary screen for SK-N-MC cells (AID 1347093); conditions: SK-N-MC viability, CellTiter-Glo luminescence, 48 h; activity change, negative = cytotoxic: at 46 µM (top of the series); note: potency is the fitted concentration of half-maximal effect
# How it was run: (§2)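 Metabolically active cells were quantified by ATP-dependent luminescence (CellTiter-Glo, 15 min at room temperature) following 48 h treatment. Cells had been plated at 500-1,000 per well and settled for 5 h beforehand.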
# [6] = qHTS of pediatric cancer cell lines to identify multiple opportunities for drug repurposing: Primary screen for BT-37 cells (AID 1347094); note: potency is the fitted concentration of half-maximal effect
# How it was run: (§3)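 Viability was measured as metabolically active cells after 48 hours of treatment, read by CellTiter-Glo luminescence. Compounds were tested at multiple final concentrations, giving concentration-response curves.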
# [7] = qHTS of pediatric cancer cell lines to identify multiple opportunities for drug repurposing: Primary screen for Saos-2 cells (AID 1347097); note: potency is the fitted concentration of half-maximal effect; nearly all actives have a fitted effect of over 40% in size
# How it was run: as §3
# [8] = qHTS of pediatric cancer cell lines to identify multiple opportunities for drug repurposing: Primary screen for SK-N-SH cells (AID 1347098); note: potency is the fitted concentration of half-maximal effect; nearly all actives have a fitted effect of over 65% in size
# How it was run: (§4)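 Cells (500-1,000/well) rested 5 h, then received compounds for 48 h; metabolically active cells were measured by CellTiter-Glo luminescence. Final concentrations spanned up to 46 µM (MIPE, 11-point) or 0.59 nM-46 µM (NPC, 8-point) in primary screens, 11-point in follow-ups.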
# [9] = qHTS of pediatric cancer cell lines to identify multiple opportunities for drug repurposing: Primary screen for LAN-5 cells (AID 1347100); note: potency is the fitted concentration of half-maximal effect
# How it was run: (§5)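 Cells (500-1,000/well) in growth media were settled 5 h at 37 degrees C, then given compounds for 48 h. Viability was read as CellTiter-Glo luminescence. Primary runs used MIPE at 11 points (0.78 nM-46 µM) and NPC at 8 points (0.59 nM-46 µM); follow-ups used 11 points.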
# [10] = qHTS of pediatric cancer cell lines to identify multiple opportunities for drug repurposing: Primary screen for BT-12 cells (AID 1347101); note: potency is the fitted concentration of half-maximal effect; nearly all actives have a fitted effect of over 25% in size
# How it was run: as §4
# [11] = qHTS of pediatric cancer cell lines to identify multiple opportunities for drug repurposing: Primary screen for OHS-50 cells (AID 1347103); note: potency is the fitted concentration of half-maximal effect; nearly all actives have a fitted effect of over 40% in size
# How it was run: as §4
# [12] = qHTS of pediatric cancer cell lines to identify multiple opportunities for drug repurposing: Primary screen for MG 63 (6-TG R) cells (AID 1347105); conditions: MG 63 (6-TG R) viability, CellTiter-Glo, 48 h; activity change, negative = cytotoxic: at 46 µM (top of the series); note: potency is the fitted concentration of half-maximal effect; nearly all actives have a fitted effect of over 50% in size
# How it was run: as §3
# [13] = qHTS of pediatric cancer cell lines to identify multiple opportunities for drug repurposing: Confirmatory screen for NB1643 cells (AID 1347109);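 note: plate controls were DMSO for no effect and bortezomib for full effect; nearly all actives have a fitted effect of over 45% in size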
# How it was run: as §5
# [14] = qHTS of pediatric cancer cell lines to identify multiple opportunities for drug repurposing: Confirmatory screen for A673 cells (AID 1347110);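 note: potency is the fitted concentration of half-maximal effect; cells exposed to compound for 48 h before the viability read; nearly all actives have a fitted effect of over 65% in size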
# How it was run: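 Concentration-response curves came straight from titrations: 11 points (0.78 nM to 46 µM) for MIPE and several concentrations (0.59 nM to 46 µM) for NPC in primary, 11 points in follow-up. Readout: ATP luminescence at 48 h.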
# [15] = qHTS of pediatric cancer cell lines to identify multiple opportunities for drug repurposing: Confirmatory screen for SK-N-MC cells (AID 1347111);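 note: potency is the fitted concentration of half-maximal effect; cells exposed to compound for 48 h before the readout; nearly all actives have a fitted effect of over 70% in size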
# How it was run: as §2
# [16] = qHTS of pediatric cancer cell lines to identify multiple opportunities for drug repurposing: Confirmatory screen for LAN-5 cells (AID 1347113); note: nearly all actives have a fitted effect of over 65% in size
# How it was run: as §5
# [17] = qHTS of pediatric cancer cell lines to identify multiple opportunities for drug repurposing: Confirmatory screen for NB-EBc1 cells (AID 1347115); conditions: NB-EBc1 neuroblastoma cells, viability (cytotoxicity); activity change, negative = cytotoxic: at 45.9 µM (top of the series);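 note: potency is the fitted concentration of half-maximal effect; cells exposed to compound for 48 h before the viability read; nearly all actives have a fitted effect of over 45% in size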
# How it was run: as §5
# [18] = qHTS of pediatric cancer cell lines to identify multiple opportunities for drug repurposing: Confirmatory screen for SJ-GBM2 cells (AID 1347116); note: potency is the fitted concentration of half-maximal effect; nearly all actives have a fitted effect of over 60% in size
# How it was run: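 Viability measured as metabolically active cells via CellTiter-Glo luminescence following 48 hours of compound exposure, 11-point dilutions in confirmatory testing. 500-1,000 cells/well plated 5 hours before dosing; controls were DMSO and 2.3 µM bortezomib.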
# [19] = qHTS of pediatric cancer cell lines to identify multiple opportunities for drug repurposing: Confirmatory screen for BT-37 cells (AID 1347117); note: potency is the fitted concentration of half-maximal effect; nearly all actives have a fitted effect of over 55% in size
# How it was run: as §5
# [20] = qHTS of pediatric cancer cell lines to identify multiple opportunities for drug repurposing: Confirmatory screen for MG 63 (6-TG R) cells (AID 1347119); note: potency is the fitted concentration of half-maximal effect; nearly all actives have a fitted effect of over 55% in size
# How it was run: as §5
# [21] = qHTS of pediatric cancer cell lines to identify multiple opportunities for drug repurposing: Confirmatory screen for U-2 OS cells (AID 1347122)
# How it was run: as §5
# [22] = qHTS of pediatric cancer cell lines to identify multiple opportunities for drug repurposing: Confirmatory screen for Rh41 cells (AID 1347123);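 note: plate controls were DMSO for no effect and bortezomib for full effect; nearly all actives have a fitted effect of over 60% in size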
# How it was run: as §5
# [23] = qHTS of pediatric cancer cell lines to identify multiple opportunities for drug repurposing: Confirmatory screen for RD cells (AID 1347124); conditions: RD rhabdomyosarcoma cell viability; activity change, negative = cytotoxic: at 45.9 µM (top of the series)
# How it was run: as §5
# [24] = qHTS of pediatric cancer cell lines to identify multiple opportunities for drug repurposing: Confirmatory screen for Rh18 cells (AID 1347125); note: % is set by controls: 0 for no effect and ±100 for the full control effect; nearly all actives have a fitted effect of over 55% in size
# How it was run: as §5
# [25] = qHTS of pediatric cancer cell lines to identify multiple opportunities for drug repurposing: Confirmatory screen for Rh30 cells (AID 1347126)
# How it was run: as §5
# [26] = qHTS to identify inhibitors of the type 1 interferon - major histocompatibility complex class I in skeletal muscle: primary screen against the NCATS Mechanism Interrogation Plate v5.0 (MIPE) Libary (AID 1347411); conditions: iHSKM cells + IFN-b, HiBiT-tagged MHC-I luminescence, 24 h; activity change, negative = inhibition: at 45.8 µM (top of the series)
# How it was run: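 Luminescence from CRISPR HiBit-tagged endogenous HLA-B in human myoblasts reported MHC class I level after 24 h of IFN-beta (4 ng/ml) plus compound. Compounds ran as 11-point 1:3 series, top 46 uM final.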
# [27] = target: Glutathione peroxidase 1 (Homo sapiens) (UniProt P07203); test: Primary qHTS Assay for Inhibitors of Recombinant Selenoprotein Glutathione Peroxidase 1 (GPX1) (AID 1845191); conditions: activity, negative = inhibition: at 48.8 µM (top of the series)
# Chain of UniProt P07203 (P07203 whole entry, looked up): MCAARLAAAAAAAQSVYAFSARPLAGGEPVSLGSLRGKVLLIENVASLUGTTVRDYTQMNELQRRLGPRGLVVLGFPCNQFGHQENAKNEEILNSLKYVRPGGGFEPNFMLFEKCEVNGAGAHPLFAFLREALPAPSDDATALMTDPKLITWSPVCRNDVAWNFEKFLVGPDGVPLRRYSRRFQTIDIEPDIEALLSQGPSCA
# How it was run: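 GPX1 10 nM, GR 100 nM, GSH 1 mM, NADPH 0.5 mM, CHP 0.5 mM (final). 30-min cpd preincubation, RT. Ex340/Em450 read t=0, t=15 min.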
# [28] = target: Phospholipid hydroperoxide glutathione peroxidase GPX4 (Homo sapiens) (UniProt P36969); test: Primary qHTS Assay for Inhibitors of Recombinant Selenoprotein Glutathione Peroxidase 4 (GPX4) (AID 1845192)
# Chain of UniProt P36969 (P36969 whole entry, looked up): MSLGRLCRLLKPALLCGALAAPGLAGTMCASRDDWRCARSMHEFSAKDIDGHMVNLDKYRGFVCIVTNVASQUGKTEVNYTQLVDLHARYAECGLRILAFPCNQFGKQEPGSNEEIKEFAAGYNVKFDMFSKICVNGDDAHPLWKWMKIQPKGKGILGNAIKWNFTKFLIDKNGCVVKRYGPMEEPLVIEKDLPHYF
# How it was run: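 qHTS, GR-coupled: GPX4 200 nM + cpd 30 min RT → GSH 1 mM, NADPH 0.5 mM, GR 100 nM → CHP 0.5 mM start; fluor 340/450 at t0 and t15 min; no-enzyme wells as control.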
# [29] = Quantitative High-Throughput drug screen in 47 multiple myeloma cell lines against the NCATS MIPE library collection: FR4_PLB cell viability assay (AID 1918924; note: potency is the fitted concentration of half-maximal effect; nearly all actives have a fitted effect of over 35% in size)
# How it was run: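 qHTS of the MIPE 4.0 collection: 500 myeloma cells/well, 48 h drug exposure at 37C in 5% CO2, then CellTiter-Glo for 5 min at room temperature before luminescence reading.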
# [30] = Quantitative High-Throughput drug screen in 47 multiple myeloma cell lines against the NCATS MIPE library collection: Delta47_JCRB cell viability assay (AID 1918925; note: potency is the fitted concentration of half-maximal effect; nearly all actives have a fitted effect of over 45% in size); conditions: Delta47 myeloma viability, CellTiter-Glo ATP, 48 h; viability (% of DMSO): at 45.8 µM (top of the series)
# How it was run: (§6)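 Steps: seed 500 cells per well; pin-transfer MIPE 4.0 library; incubate 48 h at 37C, 5% CO2, humidified; add CellTiter-Glo, 5 min room temperature; read luminescence.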
# [31] = Quantitative High-Throughput drug screen in 47 multiple myeloma cell lines against the NCATS MIPE library collection: EJM_DSMZ cell viability assay (AID 1918926; note: nearly all actives have a fitted effect of over 30% in size)
# How it was run: as §6
# [32] = Quantitative High-Throughput drug screen in 47 multiple myeloma cell lines against the NCATS MIPE library collection: ARD_JJKsccE7 cell viability assay (AID 1918929; note: potency is the fitted concentration of half-maximal effect); conditions: ARD myeloma cell line viability, CellTiter-Glo, 48 h; viability: at 45.8 µM (top of the series)
# How it was run: as §6
# [33] = Quantitative High-Throughput drug screen in 47 multiple myeloma cell lines against the NCATS MIPE library collection: KMM1_JCRB cell viability assay (AID 1918960); note: potency is the fitted concentration of half-maximal effect; nearly all actives have a fitted effect of over 30% in size
# How it was run: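 CellTiter-Glo luminescence after 48 h exposure gives viability, scaled between DMSO-only (100%) and media-only (0%) controls. Library compounds are pinned onto 500 myeloma cells per well, incubated at 37C with 5% CO2.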
# [34] = Quantitative High-Throughput drug screen in 47 multiple myeloma cell lines against the NCATS MIPE library collection: Karpas417_ECACC cell viability assay (AID 1918961); conditions: Karpas417 myeloma viability, CellTiter-Glo ATP luminescence, 48 h; viability (% of DMSO): at 45.8 µM (top of the series)
# How it was run: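 Luminescent ATP measurement with CellTiter-Glo gives viability, scaled between DMSO-only wells (100%) and media-only wells (0%). Cells, 500 per well, faced library compounds for 48 hours at 37C.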
# Tags give direction and shape of the fitted curve.
structure (smiles),measurement,setting,value
Cc1nc2ccc(CN(C)c3ccc(C(=O)N[C@@H](CCC(=O)O)C(=O)O)s3)cc2c(=O)[nH]1,Potency,[1],"inconclusive: 52.6 nM [inhibitor, full curve] and inconclusive: 11.6 nM [inhibitor, full curve]"
same,Potency,[2],active: 0.131 µM
same,Potency,[3],"inconclusive: 0.0531 µM [cytotoxic, full curve]"
same,Potency,[4],"inconclusive: 0.264 µM [cytotoxic, full curve]"
same,Potency,[5],active: 0.0105 µM
same,Potency,[6],"inconclusive: 0.0968 µM [cytotoxic, full curve]"
same,Potency,[7],"inconclusive: 0.473 µM [cytotoxic, partial curve, poor fit]"
same,Potency,[8],"inconclusive: 27.1 µM [cytotoxic, single point]"
same,Potency,[9],"inconclusive: 0.0188 µM [cytotoxic, full curve]"
same,Potency,[10],"inconclusive: 0.0611 µM [cytotoxic, full curve]"
same,Potency,[11],"inconclusive: 0.109 µM [cytotoxic, full curve]"
same,Potency,[12],"inconclusive: 0.0372 µM [cytotoxic, full curve]"
same,Potency,[13],inactive
same,Potency,[14],active: 0.0827 µM
same,Potency,[15],active: 0.0185 µM
same,Potency,[16],inactive
same,Potency,[17],"inconclusive: 0.737 µM [cytotoxic, full curve]"
same,Potency,[18],"inconclusive: 2.93 µM [cytotoxic, full curve, poor fit]"
same,Potency,[19],"inconclusive: 0.165 µM [cytotoxic, full curve]"
same,Potency,[20],"inconclusive: 0.0414 µM [cytotoxic, full curve]"
same,Potency,[21],inactive
same,Potency,[22],inactive
same,"activity change, negative = cytotoxic",[23],inconclusive: -81.1%
same,Potency,[24],inactive
same,Potency,[25],"inconclusive: 0.737 µM [cytotoxic, full curve, poor fit]"
same,Potency,[26],inactive
same,Potency,[27],active: 25.5 µM and active: 22.7 µM
same,Potency,[28],"inconclusive: 11.2 µM [inhibitor, partial curve]"
same,Potency,[29],"inconclusive: 0.0166 µM [rising, full curve]"
same,Potency,[30],inconclusive: 0.001 µM
same,Potency,[31],inactive
same,Potency,[32],"inconclusive: 0.0083 µM [cytotoxic, full curve, poor fit]"
same,Potency,[33],"inconclusive: 0.0418 µM [cytotoxic, full curve]"
same,Potency,[34],inactive
